Experimental data from PubChem BioAssay (NCI).
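Results reflect a 48-hour exposure of cells in 96-well plates to compound at five concentrations. At the GI50, growth is halved. The concentration for full growth arrest is given as TGI.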

Tested on: NCI-H322M lung
Test: NCI anticancer screen, dose series, 48 h

Question: `COC(=O)C1=C(C)NC(C)=C(C(=O)OCCCN2CCC(c3ccccc3)(c3ccccc3)CC2)C1c1cccc([N+](=O)[O-])c1` (stereo unspecified) was tested. Which TGI did it give?
Answer: 3.43 µM

Question: How did the GI50 turn out when `Fc1cc2[nH]ncc2c2c3c(c(-c4cn[nH]c4)nc12)CCCC3` was run?
Answer: 1.01 µM

Question: What about the TGI of the same molecule?
Answer: 7.16 µM

Question: Which TGI does the source give for `N#CC12C(=O)N=C(N)C1(C#N)C(c1ccco1)NC1=C2CCCC1` (stereo unspecified) here?
Answer: > 100 µM

Question: With `O=C1c2cc3c(cc2-c2c1c1ccc(F)cc1c(=O)n2CCCNCCO)OCO3` as the molecule, how does the GI50 read?
Answer: 0.0695 µM

Question: What about the TGI of the same molecule?
Answer: 0.639 µM

Question: How did the TGI turn out when `Cc1ccc(-c2[nH]c(=O)n(C3OC(CO)C(O)C(O)C3O)c(=O)c2C#N)cc1` (stereo unspecified) was run?
Answer: > 100 µM

Question: With `[Cl-].[La+3].[O-]/N=C(\c1ccccc1)c1ccccn1.[O-]/N=C(\c1ccccc1)c1ccccn1.[O-]/N=C(\c1ccccc1)c1ccccn1` as the molecule, how does the GI50 read?
Answer: 44 µM

Question: And the TGI?
Answer: > 100 µM

Question: With `C=C1C(=O)O[C@H]2[C@H]1CC/C(COC(=O)c1c[nH]c3ccccc13)=C\CC[C@@]1(C)O[C@@H]21` as the molecule, how does the GI50 read?
Answer: 1.85 µM

Question: What about the TGI of the same molecule?
Answer: 4.06 µM

Question: For `N#CC(C#N)=CNC(N)=S`, which TGI is on record?
Answer: > 100 µM

Question: For `C#CC1(O)CCC2C3CCc4cc(Oc5nc(F)nc(-c6c7ccccc7c7sc8ccccc8n67)n5)ccc4C3CC[C@@]21C` (stereo partly specified), which TGI is on record?
Answer: > 100 µM

Question: How did the TGI turn out when `COc1cc(NS(C)(=O)=O)ccc1Nc1cc(C)[nH]c2ccc3nccc3c12` was run?
Answer: > 100 µM

Question: Which TGI does the source give for `CSc1nc(NC2OCC(OC(C)=O)C(OC(C)=O)C2OC(C)=O)c(N=CC=Nc2c(NC3OCC(OC(C)=O)C(OC(C)=O)C3OC(C)=O)nc(SC)[nH]c2=O)c(=O)[nH]1` (stereo unspecified) here?
Answer: > 100 µM

Question: How did the TGI turn out when `COc1ccc(NC(=O)CC(=O)N2N=C(N3c4ccccc4Sc4ccccc43)CC2c2ccccc2)cc1` (stereo unspecified) was run?
Answer: > 100 µM

Question: For `COC(=O)C1CCC(=O)N1C(c1ccc(OC)cc1)c1ccc2c(c1)OCO2` (stereo unspecified), which TGI is on record?
Answer: > 100 µM

Question: With `COC(OC)C(C)CC(=O)N(C)C` (stereo unspecified) as the molecule, how does the TGI read?
Answer: > 100 µM

Question: Which TGI does the source give for `CCOP(=O)(OCC)C(c1ccc(F)cc1)N(C(=O)NC(F)(F)F)c1ccc(OC)cc1` (stereo unspecified) here?
Answer: > 100 µM

Question: With `Cc1ccc2c(c1)C(=O)C1(Cc3ccccc3C1=O)C2` (stereo unspecified) as the molecule, how does the TGI read?
Answer: > 100 µM

Question: For `O=S1(=O)OCCOS(=O)(=O)C1Br`, which TGI is on record?
Answer: > 100 µM

Question: Which TGI does the source give for `CCN(CCCN(CC)C(=O)Nc1c(C)cccc1C)C(=O)Nc1c(C)cccc1C` here?
Answer: > 100 µM

Question: Which TGI does the source give for `COc1cc(/C=C/C(=O)CC(=O)/C=C/c2ccc(OC(=O)CCCCC3CCSS3)c(OC)c2)ccc1OC(=O)CCCCC1CCSS1` (stereo unspecified) here?
Answer: > 100 µM

Question: How did the TGI turn out when `Cc1ccc(S(=O)(=O)N/N=C/C2(c3ccccc3)c3ccccc3-c3ccccc32)cc1` was run?
Answer: 77.5 µM

Question: `CC(=O)OC1=CC(n2cc(F)c(=O)[nH]c2=O)OC(C)C1=O` (stereo unspecified) was tested. Which TGI did it give?
Answer: > 100 µM

Question: Which TGI does the source give for `CSC(=S)N(C)C` here?
Answer: > 100 µM

Question: With `COc1ccc2c(c1)/C(=C\c1c(Cl)nc3sc(C)cn13)C(=O)N2` as the molecule, how does the TGI read?
Answer: 19.6 µM

Question: How did the TGI turn out when `CC(=O)/C(=C\c1cccc([N+](=O)[O-])c1)C(=O)Nc1ccccc1C` was run?
Answer: > 100 µM

Question: For `CCN(CC)/C(SCc1ccccc1)=C(\C(Cl)=C(Cl)Cl)[N+](=O)[O-]`, which TGI is on record?
Answer: 50.2 µM

Question: What does the source list for `Cn1cnc([N+](=O)[O-])c1S(=O)(=O)Oc1cccc2ccccc12`?
Answer: GI50: 19.2 µM; TGI: 71.6 µM

Question: How did the GI50 turn out when `Cc1cc(/C=C/c2ccc3cc(N(C)C)ccc3[n+]2C)c(C)n1-c1ccccc1` was run?
Answer: 0.926 µM

Question: And the TGI?
Answer: 7.38 µM

Question: With `O=C(Nc1ccc(Cl)cc1)c1cccc(NC2=C(Cl)C(=O)N(Cc3ccccc3)C2=O)c1` as the molecule, how does the GI50 read?
Answer: 25.7 µM

Question: And the TGI?
Answer: > 100 µM

Question: With `Cn1cnc([N+](=O)[O-])c1Sc1nc2ccccc2[nH]1` as the molecule, how does the TGI read?
Answer: 61.5 µM

Question: For `[O-][n+]1ccccc1Sc1nc(Sc2cccc[n+]2[O-])nc(Sc2cccc[n+]2[O-])n1`, which TGI is on record?
Answer: 27.1 µM

Question: Which TGI does the source give for `CC1=NN(c2cccc(Cl)c2)C2(SCC(=O)N2c2nc3ccccc3s2)/C1=C\c1ccccc1O` (stereo unspecified) here?
Answer: > 100 µM

Question: With `CN(C(=O)c1ccc(C(F)(F)F)cc1)c1ccc(Oc2ccc3c(c2)cc(C(=O)N2CCN(Cc4ccc(OC(F)F)cc4)CC2)n3C)nc1` as the molecule, how does the GI50 read?
Answer: > 100 µM

Question: What about the TGI of the same molecule?
Answer: > 100 µM

Question: `COc1cc(C2c3cc4c(cc3OC(NN)C2C)OCO4)cc(OC)c1OC` (stereo unspecified) was tested. Which TGI did it give?
Answer: > 100 µM

Question: With `CC1(C)C2CCC(=O)C1CC2` (stereo unspecified) as the molecule, how does the TGI read?
Answer: > 100 µM

Question: How did the GI50 turn out when `Nc1ncnc2n[nH]c(Nc3ccc(F)cc3)c12` was run?
Answer: 52.6 µM

Question: What about the TGI of the same molecule?
Answer: > 100 µM

Question: Which TGI does the source give for `O=c1cc(-c2ccccc2)oc2cc(OCCCOc3ccc4c(=O)cc(-c5ccccc5)oc4c3)ccc12` here?
Answer: > 100 µM

Question: With `CN1CSC(=S)N(c2c3ccccc3nc3ccc(Br)cc23)C1` as the molecule, how does the TGI read?
Answer: 22.2 µM
